Results on 29 compounds are retold here after PubChem BioAssay AID488969 (Vanderbilt High Throughput Screening Facility, 2010).

Whole data set: some 110,000 compounds, median “z-score” near -0.1, cut for the highest 2% near 2. The list shows a part of the results.

For this assay, the target named is Metabotropic glutamate receptor 8 (Rattus norvegicus) (UniProt P70579). Kind of assay: rat mGluR8 modulators via GIRK flux, primary screen, cell-based, thallium flux, HTS (AID 488969). The conditions noted are these: HEK293 rat mGluR8, GIRK (G protein-gated inwardly rectifying potassium channel) thallium flux, FluoZin2; at 10 µM; stronger effect = higher value; submaximal glutamate (EC20) added with thallium.
UniProt P70579, sequence (P70579 whole entry, looked up): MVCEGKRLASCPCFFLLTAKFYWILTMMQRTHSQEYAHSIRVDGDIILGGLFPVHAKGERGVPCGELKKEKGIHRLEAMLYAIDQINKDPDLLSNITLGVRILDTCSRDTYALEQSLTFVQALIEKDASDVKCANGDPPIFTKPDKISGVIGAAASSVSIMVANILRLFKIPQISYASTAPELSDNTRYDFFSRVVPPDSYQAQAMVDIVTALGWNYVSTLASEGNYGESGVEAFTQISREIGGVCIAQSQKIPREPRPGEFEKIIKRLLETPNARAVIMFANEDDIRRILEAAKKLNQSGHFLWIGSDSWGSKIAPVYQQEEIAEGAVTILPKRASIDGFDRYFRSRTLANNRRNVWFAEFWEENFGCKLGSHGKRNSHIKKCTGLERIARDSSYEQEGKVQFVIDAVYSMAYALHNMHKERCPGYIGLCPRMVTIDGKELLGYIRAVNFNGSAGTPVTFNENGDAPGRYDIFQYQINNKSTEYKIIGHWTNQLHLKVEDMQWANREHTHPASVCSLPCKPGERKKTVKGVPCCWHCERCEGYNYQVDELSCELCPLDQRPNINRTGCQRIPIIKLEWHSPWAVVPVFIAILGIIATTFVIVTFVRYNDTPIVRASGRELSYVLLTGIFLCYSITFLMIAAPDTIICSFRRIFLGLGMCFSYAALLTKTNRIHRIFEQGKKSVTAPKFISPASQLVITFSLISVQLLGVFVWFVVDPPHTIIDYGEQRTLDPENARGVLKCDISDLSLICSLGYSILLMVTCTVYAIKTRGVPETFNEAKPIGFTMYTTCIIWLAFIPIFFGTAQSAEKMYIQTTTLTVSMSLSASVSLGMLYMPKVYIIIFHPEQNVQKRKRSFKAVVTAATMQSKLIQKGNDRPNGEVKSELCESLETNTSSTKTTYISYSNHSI
Compound `CCOc1ccc(NC(=O)c2cn(CC(C)C)c(=O)c3c2c2ccccc2n3C)cc1` came in with a z-score of 0.279.

The compound `Cc1ccc(NC2(C(F)(F)F)N=C(c3ccccc3)NC2=O)nc1` (centres undefined) showed a z-score of -0.269.

Compound `CCCn1nc(NC(=O)CC(C)C)c2cc3ccccc3nc21` registered a z-score of -1.32.

As to `Cc1nn2c(-c3ccco3)nnc2c2ccccc12`, the z-score was -0.178.

In the case of `Cc1ccc(NC(=O)CN2C(=O)S/C(=C\c3cccn3-c3cccc(C(=O)O)c3)C2=O)c(C)c1`, the z-score is -2.

As to `CC1CCN(C(=O)CN(C)S(=O)(=O)c2cccc3nsnc23)CC1`, the z-score was -0.0898.

`COc1ccc(/C=C/C(=O)Nc2nc(C)c(C(=O)N(C)C)s2)cc1` returned a z-score of -0.338.

For `O=C(COC(=O)c1cc(C(F)(F)F)cc(C(F)(F)F)c1)NCc1ccc(Cl)cc1`, the z-score is 0.113.

Take `O=C(CCN1CCOCC1)NCC1COc2ccccc2O1` (centres undefined): the z-score turned out to be 1.03.

`C=CCc1ccccc1OCC(O)CN1CCN(Cc2ccc3c(c2)OCO3)CC1` (centres undefined) returned a z-score of 0.628.

`C#CCOc1c(Br)cc(/C=N/O)cc1OCC` came in with a z-score of -0.156.

`O=C(COc1ccc(-c2ccccc2)cc1)N/N=C/c1cc(O)ccc1Br` yielded a z-score of 0.307.

In the case of `COc1ccc(-c2c(C#N)c(N)nc3c2c(=O)n(C)c(=O)n3C)cc1Cl`, the z-score stood at 0.525.

Regarding `C[N+](C)(C)CCOC(=O)C1(c2ccccc2)CCCC1`, the z-score was -0.367.

Consider `CCC1CCC/C1=N\NC(=O)CCC(=O)Nc1ccccc1Cl` (centres undefined), for which the z-score was -0.352.

Take `COc1ccc(S(=O)(=O)N(C)CC(=O)Nc2ccccc2OC)cc1C`: the z-score is -0.0507.

In the case of `COC(=O)C1CCN(c2nc3ccccc3nc2C(C#N)C(=O)NCCc2ccccc2)CC1` (centres undefined), the z-score is -0.0188.

In turn, `CC(=O)c1c(C(C)=O)c(C)n(-c2ccc(N)c(C)c2)c1C` displayed a z-score of 0.143.

Compound `Cc1ccc(-n2c(C)cc(/C=N/NC(=O)CC3(C)OCCO3)c2C)cc1` displayed a z-score of -0.17.

The compound `Cc1ccccc1NC(=O)c1cc(S(=O)(=O)c2ccccc2)ccc1Cl` had a z-score of -0.163.

`CC(=O)Nc1ccc(C(=O)CS(=O)(=O)c2ccc(C)cc2)cc1` came in with a z-score of -0.547.

`COc1ccc(N(CC(=O)NN=C2CCCCCCC2)S(=O)(=O)c2ccccc2)cc1Cl` showed a z-score of -0.145.

`Fc1cc(F)cc(-c2oncc2-c2nnnn2-c2ccccc2)c1`: the z-score is -0.177.

`CCOc1ccc(OCC)c(NC(=O)CN2CCN(c3cc(C)ccc3C)CC2)c1`: the z-score came out at 0.261.

In turn, `Cn1c2c(c(=O)[nH]c1=O)C(NC(=O)c1ccco1)(C(F)(F)F)C(=O)N2` (centres undefined) showed a z-score of -0.0598.

Regarding `Cc1nn(C(C)(C)C)c(OC(=O)c2ccc3c(c2)OCO3)c1S(=O)(=O)c1ccccc1`, the z-score is -0.639.

`CCc1ccc(N2C(=O)C3NN=C(C(=O)OCc4ccccc4)C3C2=O)cc1` (centres undefined) showed a z-score of -0.335.

Regarding `COC(=O)Cn1c(SCc2ccccc2)nc2ccccc21`, the z-score is 0.329.

For the compound `Cc1cccc(CS(=O)(=O)c2nnc([C@H](Cc3ccccc3)NC(=O)OC(C)(C)C)o2)c1`, the z-score is -0.919.
